Measurements reported in PubChem BioAssay AID463173 (ICCB-Longwood Screening Facility, Harvard Medical School, 2010).
About 1,700 (3.3%) of roughly 52,000 compounds were called active. No stated cut-off is given here; in the data, active means survival mostly below about 52% (no sharp cut-off); inactive means mostly above about 56%. Some of the results follow.

system: Wild type; experiment: growth inhibition of S. aureus wild type versus tarO mutant, primary screen, teichoic acid synthesis inhibitors, RN4220, OD600 (AID 463173); settings: S. aureus RN4220 wild type/DeltatarO growth, OD600, 18 h, hits give low values, screened at 18.75 µg/mL (by protocol)

| SMILES | survival |
| --- | --- |
| O=C(Cc1ccc(F)cc1)NCc1nc2cccnc2n1Cc1ccc(F)cc1 | inactive: 87% |
| FC(F)(F)c1cccc(N2CCN(Cc3nnc(-c4ccc5c(c4)OCO5)o3)CC2)c1 | inactive: 65% |
| Cc1ccccc1C(=O)Nc1ccc2nc(Nc3cccc(C(F)(F)F)c3)cc(C)c2c1 | inactive: 45% |
| CCOc1ccc(S(=O)(=O)c2c[nH]c3ccccc3c2=O)cc1 | inactive: 80% |
| COc1ccc(CCNC(=O)C2CCN(c3ncnc4c3nc3n4CCCCC3)CC2)c(OC)c1 | inactive: 99% |
| CCOC(=O)c1cccc(NC(=O)N2CC(CC)Sc3ccccc32)c1 (stereo not drawn) | inactive: 84% |
| COc1cccc(-c2nc(SCC(=O)NCC3CCCO3)c(-c3ccc(F)cc3)[nH]2)c1 (stereo not drawn) | inactive: 106% |
| NS(=O)(=O)c1ccc(CCNC(=O)c2ccc3nc(Cc4ccccc4)oc3c2)cc1 | inactive: 81% |
| CC(C)(C)C1CCc2c(sc(NC(=O)CCC(=O)O)c2C(=O)Nc2ccccc2C(F)(F)F)C1 (stereo not drawn) | active: 1% |
| CCCc1cc(=O)oc2cc(C)c3c(-c4cccc(OC)c4)coc3c12 | inactive: 74% |
| CC1CCCN(Cc2nc3c(c(=O)n(C)c(=O)n3C)n2Cc2ccc(Cl)cc2Cl)C1 (stereo not drawn) | inactive: 87% |
| COc1cccc(CNC(=O)c2ccc(-c3nc(CS(=O)(=O)c4ccccc4)c(C)o3)cc2)c1 | inactive: 64% |
| COC(=O)c1ccc2c(=O)n(CCCCCC(=O)N3CCN(c4cc(Cl)ccc4C)CC3)c(=O)[nH]c2c1 | inactive: 152% |
| NC(=O)C1CCN(Cc2nc3ccccc3c(=O)[nH]2)CC1 | inactive: 108% |
| Cc1cc(C)cc(-n2nnc(-c3nsc(NC(=O)c4ccccc4Cl)n3)c2C)c1 | inactive: 49% |
| CCc1ccc(NC(=O)Cn2ncc3c(C)n(Cc4cccc(Cl)c4)c(C)c3c2=O)cc1 | inactive: 86% |
| Cc1cc(C(F)(F)F)nc(SCC(=O)Nc2c(C)n(C)n(-c3ccccc3)c2=O)n1 | inactive: 102% |
| CN(C)CCNC(=O)CN1C(=O)CCn2nc(-c3cn(C)c4ccccc34)cc21 | inactive: 72% |
| O=C(Nc1ccc(C(F)(F)F)cc1)C1CCCN(S(=O)(=O)c2cccc3cccnc23)C1 (stereo not drawn) | inactive: 87% |
| CC(=O)Nc1ccc(S(=O)(=O)NCc2ccc(C(=O)NCc3ccc(Cl)cc3)cc2)cc1 | inactive: 86% |
| COc1ccc(CCNC(=O)c2cnc3sc(N4CCC(C)CC4)nn3c2=O)cc1OC | inactive: 83% |
| O=C(Nc1cccc(C(=O)N2CCN(c3ccccc3F)CC2)c1)c1nsc2ccccc12 | inactive: 67% |

| SMILES | survival |
| --- | --- |
| COc1ccccc1Nc1c2c(nc3ccc(NC(=O)c4cccc(OC)c4OC)cc13)CCCC2 | inactive: 43% |
| COC(=O)c1cc2sccc2n1Cc1nc(-c2cccc(Br)c2)oc1C | inactive: 79% |
| CCN(c1ccc(OC)cc1)S(=O)(=O)c1nnc(NC(=O)c2ccccc2C)s1 | inactive: 56% |
| CCC1CCCCN1C(=O)CSc1n[nH]c(-c2ccccc2Cl)n1 (stereo not drawn) | inactive: 73% |
| CCOc1ccc(NC(=O)Cn2c(=O)n(CC3CCCO3)c(=O)c3ccccc32)cc1 (stereo not drawn) | inactive: 96% |
| CCc1ccc(-n2nc(C)c3c(C)cc(=O)n(CC(=O)NCc4ccc(C)cc4)c32)cc1 | inactive: 83% |
| CCc1ccc(NC(=O)CSc2nc(C)cc(COC)c2C#N)cc1 | inactive: 75% |
| CCCCCCc1cc2cc(-c3nnc(-c4ccc(C)cc4)o3)c(=O)oc2cc1O | inactive: 149% |
| CCc1nc2ccccc2c(NC(=O)CN(CC)CC)c1C | inactive: 122% |
| CC(C)CCNc1nc2c(S(=O)(=O)c3ccc(Br)cc3)nnn2c2ccsc12 | inactive: 118% |
| O=C(NCc1cccnc1)C(=O)NCC(c1cccnc1)N1CCN(c2ccccc2)CC1 (stereo not drawn) | inactive: 90% |
| CCc1cc2c(cc3c(=O)n(CC(=O)N4CCN(c5cc(Cl)ccc5C)CC4)nc(CC)n32)s1 | inactive: 85% |
| O=C(NCc1ccccc1)C1CCN(C(=O)c2cnn(-c3ccccc3)c2-n2cccc2)CC1 | inactive: 134% |
| C=Cc1ccc(Cn2c(=O)n(-c3ccc(C)cc3)c(=O)c3c2c2cc(OC)ccc2n3C)cc1 | inactive: 85% |
| COc1ccc2cc(C(=O)NCc3ccc4c(c3)CCN4C(=O)c3ccc(C)cc3)[nH]c2c1 | inactive: 84% |
| CCOc1ccc2nc(N3CCCC(C(=O)NCc4ccccc4Cl)C3)sc2c1 (stereo not drawn) | inactive: 67% |
| CC(=O)Nc1nnc(SCc2cc(=O)c3cccc(C)c3[nH]2)s1 | inactive: 90% |
| CC1=C(C(=O)Nc2ccc(C)cc2C)C(c2cccn2C)n2ncnc2N1 (stereo not drawn) | inactive: 63% |
| COc1ccc(CCNC(=O)CCCCCn2c(=O)[nH]c3cc(OC)c(OC)cc3c2=O)cc1OC | inactive: 93% |
| Cc1ccc(C)c(Cn2c(C)c(CNCc3ccc(F)cc3)c(C(=O)O)c2C)c1 | inactive: 85% |
| Cc1ccc2c(c1)c(=O)c(C(=O)c1ccncc1)cn2CC(=O)Nc1ccccc1Cl | inactive: 76% |
| CSc1nnc(COc2ccc(Br)cc2)n1Cc1ccccc1 | inactive: 112% |

| SMILES | survival |
| --- | --- |
| CCc1ccc(C2=CC(c3cccc(Br)c3)n3nnnc3N2)cc1 (stereo not drawn) | inactive: 81% |
| CC(C)C(=O)Nc1cccc(NC2=NS(=O)(=O)c3ccccc32)c1 | inactive: 82% |
| CCOC(=O)c1cccc(NC(c2nnc(-c3ccccc3)o2)c2ccccc2F)c1 (stereo not drawn) | inactive: 87% |
| Cc1ccc(C)c(N2CCN(c3nc4ccccc4c4nc(-c5cccnc5)nn34)CC2)c1 | inactive: 82% |
| CCc1ccc(NC(=O)Cn2c(=O)oc3cc(S(=O)(=O)NCc4ccccc4)ccc32)cc1 | inactive: 132% |
| Cc1ccc(CNC(=O)C2CCCN(c3nnc(-n4c(C)ccc4C)s3)C2)cc1 (stereo not drawn) | inactive: 69% |
| COc1ccc(NC(=O)CSc2nc(O)c(C/C=C/c3ccccc3)c(=O)[nH]2)cc1 | inactive: 68% |
| COc1ccccc1CNC(=O)CCC1N=C2c3ccccc3N=C(SCc3ccccc3Cl)N2C1=O (stereo not drawn) | inactive: 22% |
| CCSc1nc(-c2ccc(Cl)cc2)nc2c1Cc1c(CO)cnc(C)c1O2 | inactive: 76% |
| O=S(=O)(c1ccc(Br)cc1)N1CCOCC1 | inactive: 109% |
| CCOC(=O)c1ccc(NC(=O)CCn2cnnn2)cc1 | inactive: 78% |
| CC1(C)CC(NC(=O)C2CCCCC2)CC(C)(C)N1 | inactive: 92% |
| COC(=O)c1cnc(N2CCN(c3ccccc3OC)CC2)c2ccccc12 | inactive: 78% |
| CCOC(=O)c1sc2ccccc2c1S(=O)(=O)NCc1ccc(F)cc1 | inactive: 75% |
| COc1ccc(-c2cc(C(F)(F)F)n3nc(C(=O)Nc4cccc(C(F)(F)F)c4)c(Br)c3n2)cc1 | inactive: 76% |
| CC1=C(c2ccc(Cl)cc2)S(=O)(=O)N=C1N1CCN(c2cccc(C(F)(F)F)c2)CC1 | inactive: 79% |
| O=C(Cn1cnc2ccccc2c1=O)Nc1ccccc1 | inactive: 106% |
| O=C(NCc1ccccc1Cl)c1ccc(CSCc2cccc(F)c2)o1 | active: -1% |
| C=CCN1C(=O)C(C)(C)N(C(C)=O)c2ccccc21 | inactive: 121% |
| Cc1ccc(-n2nnnc2CNC(=O)c2ccccc2F)cc1C | inactive: 94% |
| Cc1ccc(NC(c2nnc(-c3ccccc3)o2)c2ccccc2F)c([N+](=O)[O-])c1 (stereo not drawn) | inactive: 119% |
| CC(C)(C)NC(=O)C1C2CCCCC21 (stereo not drawn) | inactive: 111% |

| SMILES | survival |
| --- | --- |
| CCn1c(-c2ccc(C(C)(C)C)cc2)n[nH]c1=S | inactive: 116% |
| O=C(Cn1cnc2c(cnn2-c2ccccc2)c1=O)c1ccccc1 | inactive: 106% |
| O=C(Nc1c(C(=O)Nc2cccc(C(F)(F)F)c2)oc2ccccc12)c1cc(=O)c2ccccc2o1 | inactive: 85% |
| O=C(O)CCn1cnc2onc(-c3ccccc3Cl)c2c1=O | inactive: 81% |
| Cc1cccn2c(=O)cc(COc3ccc(NC(=O)c4cccc(F)c4)cc3)nc12 | active: -1% |
| CCC1CCCCN1C(=O)Cn1c(=O)n(CCCCCC(=O)NCc2ccc(F)cc2)c(=O)c2sccc21 (stereo not drawn) | inactive: 138% |
| CCn1c(=O)c2cc(C(=O)NCCCN(C)Cc3ccccc3)sc2c2ccccc21 | inactive: 86% |
| CCc1cccc(NC(=O)Cn2cc(C(=O)c3ccncc3)c(=O)c3cc(C)c(C)cc32)c1 | inactive: 135% |
| Cn1nnc2cc(C(=O)N(CCO)c3ccccc3)ccc21 | inactive: 115% |
| O=C(NCc1ccc(Cl)cc1)c1ccc2c(c1)NC(=O)C(CS(=O)(=O)Cc1ccccc1Cl)N2 (stereo not drawn) | inactive: 74% |
| CCOc1ccc(NC(=O)CCS(=O)(=O)c2ccc(Br)s2)cc1 | inactive: 76% |
| Cc1cccc(NC(=O)CN2C(=O)COc3ccc(S(=O)(=O)N4CCC(C)CC4)cc32)c1C | inactive: 101% |
| CCN(CC)CCCNC(=O)c1nn(-c2ccc(OC)c(Cl)c2)c(=O)c2c1c1ccccc1n2C | inactive: 80% |
| Cn1nnnc1SCCNCc1ccc(OCc2ccccc2)cc1 | inactive: 74% |
| COC(=O)c1sccc1S(=O)(=O)N(CC(=O)NCc1ccccc1)c1ccc(C)c(C)c1 | active: 14% |
| COc1ccc(NC(=O)CSc2nnc3scc(-c4ccc(Cl)cc4)n23)cc1 | inactive: 131% |
| CCOC(=O)c1c(C)c(-c2ccccc2)n(CC(=O)Nc2cccc(F)c2)c1C | inactive: 90% |
| O=C(Nc1noc2ccccc12)c1c(F)cccc1F | inactive: 81% |
| Cc1ccc(N2CCN(S(=O)(=O)N3CCOCC3)CC2)cc1Cl | inactive: 99% |
| Cc1ccc(CNC(=O)Cn2c(=O)n(-c3ccc(C)c(F)c3)c(=O)c3sc4ccccc4c32)cc1 | inactive: 104% |
| Cc1ccc(S(=O)(=O)N(CC(=O)N2CCc3ccccc3C2)c2ccc(C)c(C)c2)cc1 | inactive: 77% |
| O=C(Nc1cc(F)ccc1F)c1ccc2c(c1)nnn2C1CCCC1 | inactive: 73% |
